Experimental data: PubChem BioAssay AID1745853 (National Center for Advancing Translational Sciences (NCATS), 2022)
Several values for one entry are separate records, joined by “and”; a condition that tells them apart may be missing. Equal entries are not always repeated. This is one part of the list. The main result of the screen is listed elsewhere. These columns were measured beside it and carry no call.

Tests used:
Assay in all cases: Primary Screen for Target Class Profiling of Small Molecule Inhibitors of Methyltransferases
[1] = target: Glycine N-methyltransferase (Homo sapiens) (UniProt Q14749); details: purified enzyme, MTase-Glo SAH luminescence; measured here: GNMT inhibition; at 40 µM; stronger effect = lower value
Outline: (§1)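 Each enzyme was reacted with SAM and its substrate, with compounds tested once at 40 uM; SAH formed was read by MTase-Glo luminescence.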

[2] = target: Guanidinoacetate N-methyltransferase (Homo sapiens) (UniProt Q14353); details: purified enzyme, MTase-Glo SAH luminescence; measured here: GAMT inhibition; at 40 µM; stronger effect = lower value
Outline: as §1

[3] = target: Histamine N-methyltransferase (Homo sapiens) (UniProt P50135); details: purified enzyme, MTase-Glo SAH luminescence; measured here: HNMT inhibition; at 40 µM; stronger effect = lower value
Outline: as §1

[4] = target: Nicotinamide N-methyltransferase (Homo sapiens) (UniProt P40261); details: purified enzyme, MTase-Glo SAH luminescence; measured here: NNMT inhibition; at 40 µM; stronger effect = lower value
Outline: as §1

[5] = target: Phenylethanolamine N-methyltransferase (Homo sapiens) (UniProt P11086); details: purified enzyme, MTase-Glo SAH luminescence; measured here: PNMT inhibition; at 40 µM; stronger effect = lower value
Outline: as §1
% is set by controls: 0 for no effect and ±100 for the full control effect.

SMILES | activity change, negative = inhibition [1] [%] | activity change, negative = inhibition [2] | activity change, negative = inhibition [3] [%] | activity change, negative = inhibition [4] | activity change, negative = inhibition [5]
CCN1CCN(C(=O)c2cc3n(n2)CC(C)(C(=O)NCc2ccccc2)N(C)C3=O)CC1 (configuration not stated) | 3.29 | 4.04% | 6.58 | 3.84% | 1.56%
CCCN1C(=O)c2c(C(=O)NCc3ccccc3OCC)ncn2CC1(C)C(=O)NCc1ccc(F)cc1 (configuration not stated) | 3.91 | 0.992% | 4.3 | 0.727% | 11.3%
Cc1ccc(Cn2c(=O)c3ccccc3n3c(-c4ccc(O)cc4)nnc23)cc1 | -11.1 | 4.07% | 5.76 | 0.401% | -2.94%
O=C(c1cn(Cc2cncn2Cc2ccc(Br)cc2)cc1-c1cccc2ccccc12)N1CCOCC1 | -6.98 | -7.86% | -9.62 | -41.8% | -7.86%
O=C(c1ccccn1)N1CC(F)(F)C[C@H]1c1nc(-c2ncccn2)no1 | -9.67 | 2.06% | 3.04 | -3.29% | 12.5%
Cn1c(CNC(=O)CC2CCN(S(C)(=O)=O)C2)nc2ccccc21 (configuration not stated) | -1.01 | 1.68% | 0.122 | -0.37% | -4.02%
CCN1C(=O)N(Cc2cccc(OC)c2)C(=O)C12CCN(Cc1nc3ccccc3n1C)CC2 | -0.648 | -4.29% | -2.04 | -13.5% | -4.82%
CC(C)Cn1c(=O)c2ccc(C(=O)NC(C)C)cc2n2c(=O)n(CC(N)=O)nc12 | -4.78 | 0.774% | -1.8 | -5.82% | -1.76%
COCC1CN(C(=O)c2ccc(OC)nc2OC)CC12CCNCC2 (configuration not stated) | -10.8 | -11.4% | -2.88 | -12.9% | -12.3%
CC1CCCCC1NC(=O)Cn1c(=O)oc2cc(S(=O)(=O)N3CCCC3)ccc21 (configuration not stated) | -9.86 | 0.827% | -1.6 | -2.2% | -11.1%
CC1CC2OCC3(O)CCC(O)C(C14CC(c1ccoc1)OC4=O)C23CO (configuration not stated) | -0.775 | 0.382% | -0.666 | -10.8% | 5.98%
CN1C(=O)c2cc3ccccc3n2CC1(C)C(=O)NCC(=O)NCCc1ccc(Cl)cc1 (configuration not stated) | -0.388 | 0.239% | 1.69 | 4.31% | 0.581%
CCOc1ccccc1CN1C(=O)c2cc3ccc(OC)cc3n2CC1(C)C(=O)NC1CCCC1 (configuration not stated) | 5.32 | 3.24% | 6.06 | 6.52% | 1.79%
Cc1ccc(NC(=O)CSc2nnc3n(Cc4ccccc4)c(=O)c4ccccc4n23)c(C)c1 | -2.51 | -1.92% | 3.13 | -1.27% | -3.06%
Cc1ccc(CCNC(=O)Cn2ccc3cc(S(=O)(=O)N4CCCCC4)ccc32)cc1 | 9.27 | 1.08% | 7.42 | 6.55% | 3.85%
C=CCn1c(=O)c2ccc(C(=O)NC(C)CC)cc2n2c(=O)n(CC(=O)Nc3cccc(C)c3)nc12 (configuration not stated) | 5.73 | 0% | 5.04 | 4.16% | 1.51%
CCC1c2ccc(C)n2CCN1C(=O)Nc1cccc(Cl)c1 (configuration not stated) | -11.1 | 4.98% | -4.72 | -9.62% | -6.21%
Cc1cc2c(cc3n2CC(C)(C(=O)NC2CCCCC2)N(Cc2ccccc2Cl)C3=O)o1 (configuration not stated) | 0.7 | 0.71% | 0.581 | 1.36% | -4.75%
Cn1nccc1C(=O)N1C[C@@H](COc2ccccc2)[C@H](C(N)=O)C1 | -1.21 | -3.06% | 0.481 | 1.94% | -2.16%
CN1C(=O)c2cc(NC(=O)c3ccc4c(c3)OCO4)ccc2N2CCN=C12 | -6.31 | 0% | 4.4 | 11.7% | -4%

SMILES | activity change, negative = inhibition [1] [%] | activity change, negative = inhibition [2] | activity change, negative = inhibition [3] [%] | activity change, negative = inhibition [4] | activity change, negative = inhibition [5]
CCC(C)NC(=O)c1ccc2c(=O)n(CCC(C)C)c3nn(Cc4cccc(F)c4)c(=O)n3c2c1 (configuration not stated) | -2.79 | 1.04% | 1.36 | -7.18% | -3.31%
Cc1cccc(CNC(=O)C(C)n2ccc3cc(S(=O)(=O)N4CCCC4)ccc32)c1 (configuration not stated) | 8.06 | 0% | 2.62 | 8.69% | 4.49%
COc1cccc(Cn2nc3n(CC(C)C)c(=O)c4ccc(C(=O)NC(C)C)cc4n3c2=O)c1 | 1.77 | 5.76% | 1.71 | -1.15% | 2.94%
CN1CCC(Cc2ccc(C(=O)N3CCCC3)cc2)CC1 | -1.65 | -1.61% | -6.17 | -4.08% | 1.6%
COc1ccc2c(c1)c(NC(C)=O)c1n2CC(C)(C(=O)NC2CCCCC2)N(CCC(C)C)C1=O (configuration not stated) | 3.37 | 0% | 6.96 | 3.74% | 0.879%
CC(C)OCCCN1C(=O)c2cc(-c3ccc(C(C)C)cc3)nn2CC1(C)C(=O)NC1CCCCC1 (configuration not stated) | -8.1 | 4.07% | 4.5 | -2.08% | 0.273%
Cc1ccsc1C(=O)N1CCC(c2nc(CCOCC3CC3)no2)C1 (configuration not stated) | -0.899 | 0.115% | 0.049 | -1.22% | -0.384%
CC(=O)O[C@@H]1C[C@@]23C[C@@]24CC[C@H](O[C@@H]2OC[C@H](O)[C@H](O)[C@H]2O)C(C)(C)[C@@H]4CC[C@H]3[C@]2(C)[C@@H](O)C34O[C@H](C[C@@H](C)[C@@H]3[C@@]12C)[C@@H](C(C)(C)O)O4 | -10.6 | -10.8% | 7.14 | -13.8% | 0.778%
COc1ccccc1S(=O)(=O)Nc1ccc2c(c1)CN(C)C(=O)N2 | -19.8 | -11.1% and -0.794% | 0.349 | -25% and -8.67% | -3.36% and 3.81%
OCCC1CCN(c2ccc(-c3nc(CCCc4ccccc4)no3)cn2)CC1 | -3.84 | -7.55% | -2.03 | -13.3% | -3.97%
O=C(c1ccc(C(F)(F)F)cc1)N1CCCC(C(=O)N2CCC(N3CCOC3=O)CC2)C1 (configuration not stated) | -6.85 | -10.3% | -4.91 | -17% | -12.9%
COC(=O)c1cc2n(n1)CC(C)(C(=O)NC1CCCCC1)N(c1cc(C)cc(C)c1)C2=O (configuration not stated) | -1.49 | 0.31% | -0.102 | 1.59% | -0.558%
Cc1cc2c(cc3n2CC(C)(C(=O)NC2CCCCCC2)N(CCc2ccc(Cl)cc2)C3=O)o1 (configuration not stated) | 7.72 | 0% | 12.6 | 14.7% | 6.59%
C[C@@H](NC(=O)C1CCCC1)c1onc(-c2cccnc2)c1C(=O)O | -8.37 | -11.4% | -3.72 | -17.8% | -16.6%
CCC1c2ccc(C)n2CCN1C(=O)Nc1cc(Cl)ccc1C(=O)OC (configuration not stated) | -9.82 | 0% | -3.09 | -4.38% | -2.53%
C=C1[C@H](OC(C)=O)[C@H]2[C@@H](OC(C)=O)C(C)C[C@]2(OC(C)=O)C(=O)[C@H](C)/C=C/C(C)(C)C(=O)[C@H](OC(=O)C(C)C)[C@H]1OC(C)=O (some centres not stated) | 0 | -5.23% | 1.64 | -18.8% | 2.43%
C[C@H]1CN(C[C@H](Cc2ccccc2)C(=O)NCC(=O)O)CC[C@@]1(C)c1cccc(O)c1 | -4 | -5.9% | 7.83 | -19.6% | -0.543%
O=C(O)C1CCc2nnc(C3CCCN([S+](=O)([O-])c4cccc(C(F)(F)F)c4)C3)n21 (configuration not stated) | -3.19 | -3.38% | -0.192 | -6.08% | -0.678%
CCc1ccc(NC(=O)CSc2nnc3[nH]c(=O)c(C)nn23)cc1 | -2.65 | 6.38% | -8.7 | -13.6% | -7.16%
Cc1cc(S(=O)(=O)NCCN2CCOCC2)ccc1Cl | -5.62 | 2.19% | 0.59 | 1.79% | -3.76%

SMILES | activity change, negative = inhibition [1] [%] | activity change, negative = inhibition [2] | activity change, negative = inhibition [3] [%] | activity change, negative = inhibition [4] | activity change, negative = inhibition [5]
C[S+](=O)([O-])N1CCN(c2nccc(Nc3ccccc3F)n2)CC1 | -9.17 | -7.53% | -2.02 | -14.5% | -12.7%
CC1(C(=O)NC2CCCCCC2)Cn2c(ccc2-c2ccccc2)C(=O)N1Cc1ccccc1F (configuration not stated) | -2.24 | -2.39% | -7.06 | -8.02% | -5.45%
O=C(COc1ccccc1)N1C[C@@H]2C[C@H](C1)c1ccc(-c3cccc(C(F)(F)F)c3)c(=O)n1C2 | -7.07 | -10.2% | -3.78 | -12.8% | -7.05%
Cc1ccc(Cl)cc1N1CCN(S(=O)(=O)c2cc3c(cc2C)n(C)c(=O)n3C)CC1 | 8.87 | 1.61% | 10.1 | -1.8% | 5.95%
CCC(O)c1cc2n(n1)CCN(Cc1nccn1Cc1ccccc1)C2 (configuration not stated) | -8.93 | -4.35% | -1.11 | -18.1% | -8.86%
CN1CCCCCCN(C(=O)c2cccn2C)[C@H]2CCC[C@H]2C1=O | -0.016 | 0.843% | -1.7 | -3.19% | -3.63%
CN(C)c1cc(CC2CC(=O)N(c3ccccc3)C2)ncn1 (configuration not stated) | -7.59 | -6.51% | -13.3 | -14% | -28.5%
CC(C)(O)c1ccc2c(c1)C(=O)C[C@H]1[C@](C)(C(=O)O)CCC[C@]21C | 0.514 | 6.65% | 11 | -4.53% | 7.13%
C=Cc1ccc(CSc2nnc3n(CCCOC(C)C)c(=O)c4ccccc4n23)cc1 | -5.68 | 0.011% | -1.34 | -5.31% | 2.6%
CC(C)=C1C[C@@]2(C)C(=CC1=O)CC[C@@H](O)[C@@H]2C | 4.99 | 1.78% | 10.6 | -11.2% | -3.7%
COc1ccc2c(OC)c3ccoc3nc2c1OC | -22.8 | -0.985% | -10.9 | -15.9% | -3.46%
COc1ccccc1-n1c(SCC(=O)Nc2nc3ccc(C)cc3s2)nc2c(c1=O)SCC2 | -7.74 | -17% | 6.19 | -28.3% | -4%
Cn1c(=O)c2ccc(C(=O)NC3CCCCC3)cc2n2c(=O)n(Cc3ccc(N4CCCC4=O)cc3)nc12 | 4.93 | 0% | 11.1 | 2.97% | 4.92%
CCCCC(=O)N(Cc1ccc(-c2ccccc2-c2nn[nH]n2)cc1)C(C(=O)O)C(C)C (configuration not stated) | -3.01 | – | 9.52 | – | –
Cc1ccc(C)c(NS(=O)(=O)c2cc3[nH]c(=O)[nH]c3cc2C)c1 | -2.35 | 0% | -0.071 | -2.12% | -3.4%
CCOC(=O)c1cc2n(n1)CC(C)(C(=O)NCc1ccc(C)cc1)N(Cc1ccc(C)cc1)C2=O (configuration not stated) | 1.07 | 4.32% | 5.23 | -4.11% | -0.355%
COc1cc(O)cc(C)c1C(=O)OC1C(CO)OC(n2ccc(=O)[nH]c2=O)C1OC(C)=O (configuration not stated) | 1.9 | -1.68% | 4.36 | -14.1% | 2.08%
Cc1ncccc1-c1nc2cc(C(=O)NCc3ccccc3F)ccc2o1 | -9.3 | -5.4% | -2.94 | -14.8% | 8.22%
CCOc1cc(CNC(=O)c2ncn3c2C(=O)N(CC)C(C)(C(=O)NC2CCCC2)C3)ccc1OC (configuration not stated) | -0.626 | 0% | 10.8 | 6.28% | 9.76%
